Experimental findings from the antibiotic and cytotoxicity screens of Wong et al. (2023) are described below.

This is one part of the list.

In assay [1] the test system is HSkMC (human skeletal muscle cells). In words: cytotoxicity call (relative viability < 0.9). The following applies: 10 µM.
Assay [2] deals with HepG2. The assay is described as follows: cytotoxicity call (relative viability < 0.9). Particulars: 10 µM.
The test system of assay [3] is S. aureus RN4220. In words: growth inhibition call (relative growth <= 0.2). Particulars: 50 µM.

`CCCC1OC2CC3C4CCC5=CC(=O)C=CC5(C)C4C(O)CC3(C)C2(C(=O)CO)O1` (stereo not given): the cytotoxicity call in assay [1] and in assay [2] was “inactive” in each case. In assay [3], the growth inhibition call was “inactive”.
`C[C@@H]1CCCCO[C@H](CN(C)C(=O)Nc2ccccc2)[C@H](C)CN([C@@H](C)CO)C(=O)c2cc(NC(=O)C3CCCCC3)ccc2O1`: the cytotoxicity call in assay [1] and in assay [2] was “inactive” in each case. Also, the growth inhibition call in assay [3] is “inactive”.
Consider `O=C(O)C1C(=CCO)OC2CC(=O)N21.[LiH]` (stereo not given), for which the cytotoxicity call in assay [1] and in assay [2] was “inactive” in each case. Further, the growth inhibition call in assay [3] is “active”.
For `Cc1ccc(S(=O)(=O)Nc2ccc3c(c2)C(=O)N([C@H](C)CO)C[C@H](C)[C@@H](CN(C)C(=O)C2CCCCC2)OCCCC[C@@H](C)O3)cc1`, the cytotoxicity call in assay [1] and in assay [2] was “inactive” in each case. Moreover, the growth inhibition call in assay [3] is “inactive”.
`O=C(C[C@H]1C=C[C@@H](NS(=O)(=O)c2ccc(F)cc2)[C@H](CO)O1)N1CCC(Cc2ccccc2)CC1`: the cytotoxicity call in assay [1] and in assay [2] was “inactive” throughout. For the same molecule, the growth inhibition call in assay [3] is “inactive”.
With `C[C@H]1CCCCO[C@@H](CN(C)C(=O)Nc2ccc(C(F)(F)F)cc2)[C@@H](C)CN([C@@H](C)CO)C(=O)c2cc(NS(C)(=O)=O)ccc2O1`, the cytotoxicity call in assay [1] and in assay [2] was “inactive” throughout. Further, in assay [3], the growth inhibition call was “inactive”.
For `NCc1nc(CCc2ccccc2)cs1`, the cytotoxicity call in assay [1] and in assay [2] was “inactive” each time. Moreover, in assay [3], the growth inhibition call was “inactive”.
For `C[C@H]1CN([C@@H](C)CO)C(=O)c2cccc(NC(=O)Nc3ccccc3)c2O[C@H]1CN(C)S(C)(=O)=O`, the cytotoxicity call in assay [1] and in assay [2] was “inactive” throughout. Moreover, in assay [3], the growth inhibition call was “inactive”.
Turning to `COc1ccccc1NC(=O)N(C)C[C@@H]1OCc2ccccc2-c2c(n(C)c3ccccc23)C(=O)N([C@@H](C)CO)C[C@@H]1C`, the cytotoxicity call in assay [1] and in assay [2] was “inactive” in each case. Also, the growth inhibition call in assay [3] was “inactive”.
For the molecule `COCC(=O)Nc1ccc2c(c1)OC[C@@H](C)N(Cc1ccccc1C(=O)O)C[C@@H](C)[C@H](OC)CN(C)C2=O`, the cytotoxicity call in assay [1] and in assay [2] was “inactive” in each case. Also, the growth inhibition call in assay [3] is “inactive”.
As to `CCC1NC(=O)c2cc(S(N)(=O)=O)c(Cl)cc2N1` (stereo not given), the cytotoxicity call in assay [1] and in assay [2] was “inactive” throughout. Moreover, the growth inhibition call in assay [3] is “inactive”.
In the case of `COc1ccc(NC(=O)N(C)C[C@H]2Oc3c(NC(=O)CCCCCC(=O)Nc4ccccc4N)cccc3C(=O)N([C@H](C)CO)C[C@@H]2C)cc1`, the cytotoxicity call in assay [1] and in assay [2] was “inactive” throughout. Also, in assay [3], the growth inhibition call was “inactive”.
For `C[C@@H]1CN([C@H](C)CO)C(=O)c2c(c3ccccc3n2C)-c2ccccc2CO[C@H]1CN(C)C(=O)Nc1ccccc1`, the cytotoxicity call in assay [1] and in assay [2] was “inactive” throughout. Also, in assay [3], the growth inhibition call was “inactive”.
For `COc1cccc(S(=O)(=O)Nc2ccc3c(c2)[C@@H]2C[C@@H](CC(=O)NCc4cccc(F)c4)O[C@H](CO)[C@@H]2O3)c1`, the cytotoxicity call in assay [1] and in assay [2] was “inactive” throughout. Also, the growth inhibition call in assay [3] was “inactive”.
Turning to `Cc1ccc(S(=O)(=O)N[C@@H]2CC[C@H](CCNC(=O)CN3CCOCC3)O[C@H]2CO)cc1`, the cytotoxicity call in assay [1] and in assay [2] was “inactive” throughout. Besides, the growth inhibition call in assay [3] is “inactive”.
Take `CC(C)NC(=O)Nc1cccc2c1O[C@H](CN(C)Cc1ccc3c(c1)OCO3)[C@H](C)CN([C@@H](C)CO)C2=O`: the cytotoxicity call in assay [1] and in assay [2] was “inactive” in each case. The growth inhibition call in assay [3] is “inactive”.
For `O=C(Nc1ccc(-c2ccccc2)cc1)[C@H]1C[C@@H]1c1ccccc1`, the cytotoxicity call in assay [1] and in assay [2] was “inactive” throughout. In addition, the growth inhibition call in assay [3] is “inactive”.
`COc1ccc(S(=O)(=O)Nc2ccc3c(c2)C(=O)N([C@H](C)CO)C[C@H](C)[C@@H](CN(C)S(C)(=O)=O)O3)cc1`: the cytotoxicity call in assay [1] and in assay [2] was “inactive” throughout. Further, in assay [3], the growth inhibition call was “inactive”.
Take `O=C(CN1CCOCC1)N[C@H]1CC[C@@H](CCNC(=O)C2CCC2)O[C@H]1CO`: the cytotoxicity call in assay [1] and in assay [2] was “inactive” in each case. Besides, in assay [3], the growth inhibition call was “inactive”.
As for `CCS(=O)(=O)N1CC[C@]2(CC1)CN([C@@H](CO)c1c2c2ccc(cc2n1C)OC)C(=O)Nc1c(noc1C)C`, the cytotoxicity call in assay [1] and in assay [2] was “inactive” throughout. The growth inhibition call in assay [3] was “inactive”.
`C[C@@H]1CN([C@@H](C)CO)C(=O)Cc2cc(NS(=O)(=O)c3cn(C)cn3)ccc2O[C@H]1CN(C)S(=O)(=O)c1cccs1`: the cytotoxicity call in assay [1] and in assay [2] was “inactive” each time. Further, in assay [3], the growth inhibition call was “inactive”.
In the case of `C[C@@H]1CN([C@H](C)CO)C(=O)Cc2cc(NS(=O)(=O)c3cn(C)cn3)ccc2O[C@@H]1CN(C)C(=O)Nc1ccc(F)cc1`, the cytotoxicity call in assay [1] and in assay [2] was “inactive” in each case. The growth inhibition call in assay [3] is “inactive”.
With `CCOC(=O)CNc1n[nH]c(=O)[nH]c1=O`, the cytotoxicity call in assay [1] and in assay [2] was “inactive” throughout. Also, the growth inhibition call in assay [3] was “inactive”.
For the molecule `CC(C)NC(=O)N(C)C[C@H]1OCCCC[C@H](C)Oc2ccc(NC(=O)C3CCCCC3)cc2C(=O)N([C@H](C)CO)C[C@@H]1C`, the cytotoxicity call in assay [1] and in assay [2] was “inactive” throughout. Moreover, in assay [3], the growth inhibition call is “inactive”.
With `Cc1ccc(S(=O)(=O)N2C[C@@H](O)COC[C@@H]3O[C@@H](CC(=O)NCc4ccc(Cl)c(Cl)c4)CC[C@H]32)cc1`, the cytotoxicity call in assay [1] is “inactive”. Moreover, in assay [2], the cytotoxicity call is “active”. For the same molecule, the growth inhibition call in assay [3] was “inactive”.
Regarding `C[C@@H]1CCCCO[C@@H](CN(C)Cc2ccc(C(=O)Nc3ccccc3N)cc2)[C@@H](C)CN([C@H](C)CO)C(=O)c2cc(NC(=O)Nc3ccccc3)ccc2O1`, the cytotoxicity call in assay [1] and in assay [2] was “inactive” throughout. The growth inhibition call in assay [3] was “inactive”.
As to `Cc1ccc(-c2ccc3c(c2)O[C@H](CN(C)C(=O)Nc2ccc(C(F)(F)F)cc2)[C@H](C)CN([C@H](C)CO)S3(=O)=O)cc1`, the cytotoxicity call in assay [1] and in assay [2] was “inactive” in each case. The growth inhibition call in assay [3] was “inactive”.
As for `O=C(NCCCO)c1cc2ccccc2oc1=O`, the cytotoxicity call in assay [1] and in assay [2] was “inactive” throughout. The growth inhibition call in assay [3] was “inactive”.
For the molecule `C[C@@H]1CN([C@H](C)CO)C(=O)c2cc(NC(=O)c3ccncc3)ccc2O[C@H]1CN(C)Cc1ccc(Oc2ccccc2)cc1`, the cytotoxicity call in assay [1] and in assay [2] was “inactive” each time. In addition, in assay [3], the growth inhibition call is “inactive”.
With `C[C@H](CO)N1C[C@H](C)[C@@H](CN(C)C(=O)Nc2cccc3ccccc23)OCCCC[C@H](C)Oc2ccc(NC(=O)Cc3ccccc3)cc2C1=O`, the cytotoxicity call in assay [1] and in assay [2] was “inactive” each time. Moreover, in assay [3], the growth inhibition call was “inactive”.
With `OC[C@H]1O[C@H](Nc2ccccc2)C[C@@H]1O`, the cytotoxicity call in assay [1] and in assay [2] was “inactive” in each case. For the same molecule, the growth inhibition call in assay [3] was “inactive”.
In the case of `C[C@@H]1CN([C@H](C)CO)S(=O)(=O)c2ccc(Br)cc2O[C@@H]1CN(C)CC1CCOCC1`, the cytotoxicity call in assay [1] and in assay [2] was “inactive” each time. The growth inhibition call in assay [3] was “inactive”.
For `O=C(CCCCCNC(=O)OCCCCO[C@H]1C[C@@H](c2ccc3c(c2)OCO3)C=C(C(=O)N2CCOCC2)O1)NO`, the cytotoxicity call in assay [1] and in assay [2] was “inactive” each time. In addition, in assay [3], the growth inhibition call was “inactive”.
Take `Cc1ccc(S(=O)(=O)N(C)C[C@@H]2OCCCC[C@@H](C)Oc3ccc(NS(=O)(=O)c4ccc(F)cc4)cc3C(=O)N([C@@H](C)CO)C[C@H]2C)cc1`: the cytotoxicity call in assay [1] and in assay [2] was “inactive” in each case. Also, the growth inhibition call in assay [3] was “inactive”.
For `CO[C@H]1CN(C)C(=O)c2ccc(NC(=O)C3CC3)cc2OC[C@H](C)N(C(=O)CN2CCOCC2)C[C@@H]1C`, the cytotoxicity call in assay [1] and in assay [2] was “inactive” throughout. For the same molecule, the growth inhibition call in assay [3] is “inactive”.
On to `CCCC#Cc1ccc2c(c1)O[C@H](CN(C)C(=O)c1cnccn1)[C@@H](C)CN([C@@H](C)CO)S2(=O)=O`, for which the cytotoxicity call in assay [1] and in assay [2] was “inactive” each time. For the same molecule, the growth inhibition call in assay [3] was “inactive”.
`COc1ccc(NC(=O)Nc2ccc3c(c2)C(=O)N([C@@H](C)CO)C[C@@H](C)[C@H](CN(C)C(=O)Nc2ccc(F)cc2)OCCCC[C@@H](C)O3)cc1`: the cytotoxicity call in assay [1] and in assay [2] was “inactive” throughout. In assay [3], the growth inhibition call was “inactive”.
Regarding `O=C(O)C=CC=Cc1ccc2c(c1)OCO2`, the cytotoxicity call in assay [1] and in assay [2] was “inactive” throughout. The growth inhibition call in assay [3] was “inactive”.
With `C[C@@H]1CCCCO[C@H](CN(C)Cc2ccc(C(=O)Nc3ccccc3N)cc2)[C@@H](C)CN([C@@H](C)CO)C(=O)c2cc(N(C)C)ccc2O1`, the cytotoxicity call in assay [1] and in assay [2] was “inactive” each time. For the same molecule, the growth inhibition call in assay [3] was “inactive”.
Take `CC1CCN(C(=O)N2c3ccccc3Sc3ccccc32)CC1`: the cytotoxicity call in assay [1] and in assay [2] was “inactive” throughout. Further, in assay [3], the growth inhibition call was “inactive”.
